Measurements taken from PubChem BioAssay (NCI).
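Dose response: 5 concentrations. Exposure: 48 h. Format: 96-well plates. Endpoint: linear interpolation; highest concentration if not reached. GI50 is the concentration that inhibits growth by half.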 Some entries of the source have several records that differ or are many. They are shown here; other results are not. An entry can have further records. For part of these data: A record mostly stands for its own series of concentrations, not given here; a value can be the end of its range. For part of these data: The values listed for one entry are repeats in other runs, samples, wells, individuals or studies. Records carry a tag for their origin. The letters are not those of the source and start again with each entry.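 TGI: total growth inhibition.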 Where a SMILES comes first, the peptide text is derived from it. The star is where a group is joined. Boc = CC(C)(C)OC(=O)*; OBn = c1ccc(CO*)cc1

Columns and labels:
Test in all cases: inhibition of tumour cell growth, NCI panel, 48 h
SR leukemia = test system: SR leukemia
SNB-75 CNS = test system: SNB-75 CNS
SNB-19 CNS = test system: SNB-19 CNS
786-0 renal = test system: 786-0 renal
CAKI-1 renal = test system: CAKI-1 renal
HCT-116 colon = test system: HCT-116 colon
HCT-15 colon = test system: HCT-15 colon
UO-31 renal = test system: UO-31 renal
SN12C renal = test system: SN12C renal
HOP-18 NSCLC = test system: HOP-18 NSCLC
RPMI-8226 leukemia = test system: RPMI-8226 leukemia
IGROV1 ovarian = test system: IGROV1 ovarian
BT-549 breast = test system: BT-549 breast
HL-60(TB) leukemia = test system: HL-60(TB) leukemia
TK-10 renal = test system: TK-10 renal

## Nc1ccn(CC(CO)CC(c2ccccc2)P(=O)(O)O)c(=O)n1 (stereo not given)
SR leukemia
  GI50: > 100 µM [sample A, 1 test] and 4.6 µM [sample B, 1 test]
SNB-75 CNS
  GI50: 1.73 µM [sample A, 1 test] and > 100 µM [sample B, 1 test]

## C/C=C1\C[C@@H]2C(OC)Nc3cc(O)c(OC)cc3C(=O)N2C1 (stereo not given in full)
SNB-19 CNS
  TGI: 396 nM and 4.17 µM
786-0 renal
  TGI: 624 nM and 8.92 µM
CAKI-1 renal
  TGI: 267 nM and > 37.8 µM
HCT-116 colon
  TGI: 473 nM and 5.05 µM
HCT-15 colon
  TGI: 823 nM and 11.1 µM
UO-31 renal
  TGI: 5.78 nM and 78.5 nM
SN12C renal
  TGI: 360 nM and 6.53 µM
HOP-18 NSCLC
  TGI: 313 nM and < 24.1 nM
RPMI-8226 leukemia
  TGI: 512 nM and < 12.9 nM

## CCCC(=O)Nc1ncnc2c1ncn2C1OC2COP(=O)(O)OC2C1OC(=O)CCC (stereo not given)
IGROV1 ovarian
  TGI: 53.1 µM and > 1 mM

## COc1cc(C(=O)Nc2cc(O)c(C/C=C(\C)CCC=C(C)C)c(O)c2)cc2c1O[C@]1(C)CC[C@@H](O)C(C)(C)[C@H]1C2
BT-549 breast
  GI50: 8.86 nM [1 test] and 216 nM [mean of 2 tests]
HL-60(TB) leukemia
  TGI: 1.85 µM and > 100 µM

## CC(C)C(NC(=O)CNC(=O)C1CCCN1C(=O)C(NC(=O)OC(C)(C)C)C(C)C)C(=O)NCC(=O)OCc1ccccc1 (stereo not given) (Boc-VPGVG-OBn; configuration not given here)
TK-10 renal
  GI50: > 100 µM [sample A, 1 test] and 200 nM [sample B, 1 test]
